Data: PubChem BioAssay AID488969 (Vanderbilt High Throughput Screening Facility, 2010)
In all, about 110,000 compounds were measured (“z-score”: median about -0.1, highest 2% from about 2 on). Some of the results follow. Calls of active or inactive are those of the source.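 The calls were made as follows: active = z-score in the third read window above 3 or below -3; inactive = the rest.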

The molecules below were run against Metabotropic glutamate receptor 8 (Rattus norvegicus) (UniProt P70579) (assay: rat mGluR8 modulators via GIRK flux, primary screen, cell-based, thallium flux, HTS (AID 488969)). Settings: HEK293 rat mGluR8, GIRK (G protein-gated inwardly rectifying potassium channel) thallium flux, FluoZin2; at 10 µM; stronger effect = higher value; submaximal glutamate (EC20) added with thallium.
Sequence of UniProt P70579 (P70579 whole entry, looked up): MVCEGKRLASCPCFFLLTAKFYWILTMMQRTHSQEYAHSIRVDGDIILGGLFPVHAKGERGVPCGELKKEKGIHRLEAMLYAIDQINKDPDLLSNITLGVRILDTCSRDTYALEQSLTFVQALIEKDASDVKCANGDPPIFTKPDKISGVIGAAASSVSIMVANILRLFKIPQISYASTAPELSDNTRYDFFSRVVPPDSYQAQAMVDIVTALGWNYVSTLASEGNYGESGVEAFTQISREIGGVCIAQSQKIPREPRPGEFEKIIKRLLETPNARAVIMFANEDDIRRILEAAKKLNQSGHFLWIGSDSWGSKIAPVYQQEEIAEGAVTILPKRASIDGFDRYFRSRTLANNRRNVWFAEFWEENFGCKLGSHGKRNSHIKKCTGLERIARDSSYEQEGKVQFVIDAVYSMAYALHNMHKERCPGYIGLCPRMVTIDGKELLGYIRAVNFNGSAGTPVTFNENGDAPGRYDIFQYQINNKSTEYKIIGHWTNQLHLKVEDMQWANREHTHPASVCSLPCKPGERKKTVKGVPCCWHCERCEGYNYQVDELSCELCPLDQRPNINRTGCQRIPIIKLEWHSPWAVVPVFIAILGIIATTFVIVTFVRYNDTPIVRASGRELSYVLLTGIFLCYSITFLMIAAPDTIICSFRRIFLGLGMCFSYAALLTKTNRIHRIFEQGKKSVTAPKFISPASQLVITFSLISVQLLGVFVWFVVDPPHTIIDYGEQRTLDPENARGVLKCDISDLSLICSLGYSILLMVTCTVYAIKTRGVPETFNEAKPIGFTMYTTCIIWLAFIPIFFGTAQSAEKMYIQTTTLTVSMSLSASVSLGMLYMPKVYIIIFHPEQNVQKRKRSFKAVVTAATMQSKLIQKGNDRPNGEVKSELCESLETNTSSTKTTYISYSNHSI

SMILES	z-score
COC(=O)c1[nH]c2ccc(C)cc2c1NC(=O)Nc1ccc(OC)cc1	-0.21
CCOC(=O)c1sc(NS(=O)(=O)c2cc(C)ccc2C)nc1C	-0.555
CCCCCn1c(CCC(=O)Oc2ccccc2OC)nc2c1c(=O)[nH]c(=O)n2CCCC	-0.309
COc1ccc(/C(C)=N/NC(=S)NCc2ccco2)cc1	active: 4.34
O=C(Nc1nnc(-c2ccccc2)s1)c1cc(S(=O)(=O)N2CCOCC2)c(Cl)cc1Cl	-0.234
CN(C)c1ccnc(Oc2ccc(Cl)cc2)c1C#N	-0.151
CN(C)S(=O)(=O)c1cccc(C(=O)N(Cc2ccc(F)cc2)Cc2ccco2)c1	0.217
Cc1cccc(C(=O)O/N=C/c2c(N3CCOCC3)n(C)c3ccccc23)c1	-0.109
COc1ccc(-c2ccnc3nc(Sc4ncc(C(F)(F)F)cc4Cl)nn23)cc1	active: -3.36
O=C(CCNC(=O)Cn1ccc2ccccc2c1=O)NCCc1ccc(Cl)cc1	-0.466
C=CCn1c(SCCN2CCOCC2)nc2c1c(=O)[nH]c(=O)n2C	-0.0146
COc1ccccc1-c1nnc(NC(=O)c2ccc(S(=O)(=O)N(C)Cc3ccccc3)cc2)o1	0.103
Cc1cc(CN2CCN(CCC#N)CC2)c(O)c(C2(C)CCCCC2)c1	0.662
Clc1cccc(COn2c(-c3ccc(Cl)cc3Cl)nc3ncccc32)c1	0.0843
Cc1cc(C)n(-c2ccc(F)cc2)c(=O)c1C(=O)O	1.52
CC(Sc1nnnn1-c1ccc(Cl)cc1)C(=O)NCC(=O)Nc1ccc(F)c(F)c1F (centres undefined)	-0.067
CCOC(=O)c1cnn(-c2nc(OCC)cc(OCC)n2)c1C	-0.402
COc1ccc(C(=S)N2CCCC2)cc1	-0.0384
COC(=O)Cn1c(=NC(=O)c2ccc(OC)c(OC)c2)sc2cc(OC)ccc21	-0.167
COc1cc(C(=O)NC(c2ccccc2)c2ccccc2)cc(Cl)c1OC	0.243
COc1cccc(-n2nnc3c(=O)n(Cc4ccc(Br)cc4)cnc32)c1	-0.275
CCOCCOc1nc2c(c(=O)n(C)c(=O)n2C)n1Cc1ccc(C)cc1	0.678
CSc1nnc(NC(=O)CCc2ccccc2)s1	0.2

SMILES	z-score
Nc1nc(SCC(=O)N2N=C3/C(=C/c4ccco4)CCCC3C2c2ccco2)n[nH]1 (centres undefined)	-0.422
c1ccc(-c2nnc(-c3ccccc3)c(-c3c[nH]c4ccccc34)n2)cc1	0.446
CCOc1ccc(NC(=O)CN(C)CC(=O)Nc2cc(Cl)ccc2C#N)cc1OCC	-0.41
CCOC(=O)c1ccc(-n2c(O)c(/C=N/NC(=O)C3COc4ccccc4O3)c3ccccc3c2=O)cc1 (centres undefined)	0.296
Cc1c(Cl)cccc1NC(=S)NCCC(C)C	0.733
CSc1nc(O)c(/C=C2\C=Nc3ccccc32)[nH]1	-0.16
Cc1ccc(NC(=O)c2sc(Cl)nc2-c2ccccc2)cc1	-0.823
CC(=O)Nc1nnc(-c2ccc3c(c2)CCCC3)o1	0.0154
O=c1cc[nH]c2cc(C(F)(F)F)ccc12	0.361
O=C(Cn1cnc2ccccc2c1=O)NCc1ccco1	0.0951
COc1ccc(-c2nc(N)n(C(=O)c3ccccc3Cl)n2)cc1	0.213
CC1(C)CC(=O)C(/C=N/n2c(C(F)(F)F)nc3ccccc3c2=O)=C(O)C1	-0.706
O=C(COc1ccc(CO)cc1Cl)Nc1ccc(F)cc1	0.647
O=C(/C=C/c1ccc([N+](=O)[O-])cc1)NCC1CCCO1 (centres undefined)	-0.077
CN(C)c1nc(SCC#N)nc(N(C)C)n1	0.0633
Cc1ccc(C2(C(F)(F)F)N=C3Sc4cc(C)ccc4N3C(=O)N2)cc1 (centres undefined)	-0.275
O=C(CSc1ccc2nnc(-c3ccccn3)n2n1)NCC1CCCO1 (centres undefined)	-0.0414
CC1N(C)c2cc(NC(=O)c3ccco3)ccc2C1(C)C (centres undefined)	-0.832
CNC(=S)Nc1ccc(C23CC4CC(CC(C4)C2)C3)cc1	0.295
Cc1cccc2cc(CN(C(=O)c3cnccn3)C3CCCCC3)c(Cl)nc12	-1.1
COC(=O)c1ccc(NC(=O)CSc2nnnn2C2CCCCC2)cc1	-0.979
O=C(Nc1ccc(-c2csc(-c3ccccc3)n2)cc1)c1ccccc1Cl	0.0278
COc1ccc(Cn2c(C3CC3)nc3ccc(NC(=O)c4ccco4)cc3c2=O)cc1	-0.491

SMILES	z-score
COc1ccc(C(=O)CCC(=O)N2CCN(c3ccc(N4CCOCC4)nn3)CC2)cc1	0.0583
NC(=O)CN1C(=O)C(O)(CC(=O)/C=C\C=C\c2ccccc2)c2ccccc21 (centres undefined)	-0.294
CCOc1ccc(NC(=S)N(Cc2ccc(N(C)C)cc2)Cc2ccco2)cc1	0.23
COCCNS(=O)(=O)c1ccc(SC)cc1	0.384
S=C(NCCc1ccccn1)Nc1cccc(Cl)c1	0.189
O=C(COc1ccccc1)c1cn(CC(=O)N2CCOCC2)c2ccccc12	-0.407
Cc1cc(C)n(-c2ccc(C(=O)NCc3cccs3)cc2)n1	0.0522
COc1ccc(-c2nnn(CC(=O)N3CCN(c4ccccc4OC)CC3)n2)cc1	-0.289
O=C(NCc1ccccc1)c1ccccc1OCC(=O)N1CCCCC1	-0.0625
Clc1cccc(Cl)c1CSc1nnc(CN2CCOCC2)n1-c1ccccc1	0.321
O=C1C=C(c2cccs2)C[C@H](c2ccccc2)[C@H]1n1nnc([N+](=O)[O-])n1	0.0163
O=C(Nc1ccc2c(c1)OCO2)c1ccncc1	0.114
COc1ccc(-c2nnn(Cc3nc(N)nc(N4CCOCC4)n3)n2)cc1OC	-0.0369
CCN(CC)c1ccc(N=Nc2nn(C)c(C)c2[N+](=O)[O-])cc1	-0.829
O=C1CC(c2ccccc2)Sc2nc(-c3ccccc3)c(-c3ccccc3)n21 (centres undefined)	0.0856
COc1ccccc1N1CCN(S(=O)(=O)c2cccs2)CC1	0.771
Cc1ccc(-n2c(SCC(=O)N3Cc4ccccc4CC3C(=O)O)nnc2-c2cccnc2)c(C)c1 (centres undefined)	-0.28
CCOC(=O)c1cc(-c2ccco2)nc2c1c(C)nn2-c1ccccc1	-0.0787
CCCCNC(=O)c1onc(CSc2ccccc2)c1C(=O)O	0.0319
COc1ccc(S(=O)(=O)Nc2cc(C)on2)cc1OC	0.223
Cc1cc2ncn(S(=O)(=O)c3ccc(S(=O)(=O)N4CCCCCC4)cc3)c2cc1C	-0.31
COc1cc(-n2c3nc4ccccc4nc3c3c(=O)n(Cc4ccco4)cnc32)cc(OC)c1OC	0.658
C=CCc1cc(/C=N/n2cnnc2)cc(OCC)c1O	0.000823
